Like-named read-outs stand apart in the source and are kept apart here.
Molecular target: human CB2 receptor (hCB2) (Homo sapiens, UniProt P34972)
Assay: cell-based
Assay type: cell-based
Conditions: for +/− HCB2: agonist or inverse agonist at hCB2
[1] = groups >100 nM-10 μM and >10 μM, cAMP, CHO-K1 hCB2, read-out: EC50 HCB2

Chain of human CB2 receptor (hCB2) (P34972 whole entry): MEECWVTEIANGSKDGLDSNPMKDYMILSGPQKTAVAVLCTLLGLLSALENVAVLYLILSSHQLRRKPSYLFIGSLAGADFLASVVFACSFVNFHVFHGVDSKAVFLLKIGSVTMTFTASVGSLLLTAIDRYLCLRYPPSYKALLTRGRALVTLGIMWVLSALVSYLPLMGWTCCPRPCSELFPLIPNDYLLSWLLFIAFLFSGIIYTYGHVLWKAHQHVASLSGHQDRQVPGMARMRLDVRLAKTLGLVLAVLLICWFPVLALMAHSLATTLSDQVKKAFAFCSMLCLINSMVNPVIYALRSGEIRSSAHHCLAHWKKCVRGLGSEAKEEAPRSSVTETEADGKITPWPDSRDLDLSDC

SMILES | +/− HCB2 | EC50 | further results
CNC(=O)[C@@H](NC(=O)c1nc(-c2ccc(C)cc2Cl)n2c1CN(C)CCC2)C(C)(C)C [Compound 367, (S)-3-(2-chloro-4-methylphenyl)-N-(3,3-dimethyl-1-(methylamino)-1-oxobutan-2-yl)-8-methyl-6,7,8,9-tetrahydro-5H-imidazo[1,5-a][1,4]diazepine-1-carboxamide] | + |  | 
CNC(=O)[C@@H](NC(=O)c1nc(CCc2ccsc2)n2c1CN(C)CCC2)C(C)(C)C [Compound 495, (S)-N-(3,3-dimethyl-1-(methylamino)-1-oxobutan-2-yl)-8-methyl-3-(2-(thiophen-3-yl)ethyl)-6,7,8,9-tetrahydro-5H-imidazo[1,5-a][1,4]diazepine-1-carboxamide] | + |  | 
CNC(=O)[C@@H](NC(=O)c1nc(-c2cncnc2)n2c1CN(C)CC2)C(C)(C)C [Compound 239, (S)-N-(3,3-dimethyl-1-(methylamino)-1-oxobutan-2-yl)-7-methyl-3-(pyrimidin-5-yl)-5,6,7,8-tetrahydroimidazo[1,5-a]pyrazine-1-carboxamide] | + |  | 
CNC(=O)[C@@H](NC(=O)c1nc(-c2cccc(S(=O)(=O)N3CCCC3)c2)n2c1CN(C)CCC2)C(C)(C)C [Compound 385, (S)-N-(3,3-dimethyl-1-(methylamino)-1-oxobutan-2-yl)-8-methyl-3-(3-(pyrrolidin-1-ylsulfonyl)phenyl)-6,7,8,9-tetrahydro-5H-imidazo[1,5-a][1,4]diazepine-1-carboxamide] |  | > 10000 nM | 
CNC(=O)[C@@H](NC(=O)c1nc(-c2ccccc2)n2c1CN(C(=O)C(C)C)CC2)C(C)(C)C [Compound 191, (S)-N-(3,3-dimethyl-1-(methylamino)-1-oxobutan-2-yl)-7-isobutyryl-3-phenyl-5,6,7,8-tetrahydroimidazo[1,5-a]pyrazine-1-carboxamide] | − |  | 
CNC(=O)[C@H](CC(C)(C)C)NC(=O)c1nc(-c2ccc(C(F)(F)F)cc2F)n2c1CN(C)CCC2 [Compound 551, (S)-N-(4,4-dimethyl-1-(methylamino)-1-oxopentan-2-yl)-3-(2-fluoro-4-(trifluoromethyl)phenyl)-8-methyl-6,7,8,9-tetrahydro-5H-imidazo[1,5-a][1,4]diazepine-1-carboxamide] | + |  | 
CN1CCn2c(-c3ccccc3)nc(C(=O)CC(C)(C)C)c2C1 [Compound 292, 3,3-dimethyl-1-(7-methyl-3-phenyl-5,6,7,8-tetrahydroimidazo[1,5-a]pyrazin-1-yl)butan-1-one] |  |  | EC50 [1]: > 10000 nM
CNC(=O)[C@H](CC(C)C)NC(=O)c1nc(-c2ccc(C(F)(F)F)cc2F)n2c1CN(C)CCC2 [Compound 533, (S)-3-(2-fluoro-4-(trifluoromethyl)phenyl)-8-methyl-N-(4-methyl-1-(methylamino)-1-oxopentan-2-yl)-6,7,8,9-tetrahydro-5H-imidazo[1,5-a][1,4]diazepine-1-carboxamide] | + |  | 
CNC(=O)[C@@H](NC(=O)c1nc(-c2ccc(Cl)cc2)n2c1CNCC2)C(C)(C)C [Compound 9, (S)-3-(4-chlorophenyl)-N-(3,3-dimethyl-1-(methylamino)-1-oxobutan-2-yl)-5,6,7,8-tetrahydroimidazo[1,5-a]pyrazine-1-carboxamide] | + |  | 
CN1CCn2c(-c3ccc(Cl)cc3F)nc(C(=O)N3CCC4(CC3)C(=O)NCN4c3ccccc3)c2C1 [Compound 214, 8-(3-(4-chloro-2-fluorophenyl)-7-methyl-5,6,7,8-tetrahydroimidazo[1,5-a]pyrazine-1-carbonyl)-1-phenyl-1,3,8-triazaspiro[4.5]decan-4-one] |  | > 10000 nM | 
CNC(=O)[C@@H](NC(=O)c1nc(-c2cc(F)cc(F)c2)n2c1CN(C)CC2)C(C)(C)C [Compound 262, (S)-3-(3,5-difluorophenyl)-N-(3,3-dimethyl-1-(methylamino)-1-oxobutan-2-yl)-7-methyl-5,6,7,8-tetrahydroimidazo[1,5-a]pyrazine-1-carboxamide] | + |  | 
CC(C)CCNC(=O)c1nc(-c2ccc(Cl)cc2)n2c1CN(C(=O)C1CC1)CC2 [Compound 131, 3-(4-chlorophenyl)-7-(cyclopropanecarbonyl)-N-isopentyl-5,6,7,8-tetrahydroimidazo[1,5-a]pyrazine-1-carboxamide] |  | > 10000 nM | 
CNC(=O)[C@@H](NC(=O)c1nc(C2=CCC(C)CC2)n2c1CN(C)CC2)C(C)(C)C (stereo partly drawn) [Compound 270, N-((S)-3,3-dimethyl-1-(methylamino)-1-oxobutan-2-yl)-7-methyl-3-(4-methylcyclohex-1-enyl)-5,6,7,8-tetrahydroimidazo[1,5-a]pyrazine-1-carboxamide] |  | > 10000 nM | 
CNC(=O)[C@@H](NC(=O)c1nc(-c2ccccc2)n2c1CN(C(C)C)CC2)C(C)(C)C [Compound 85, (S)-N-(3,3-dimethyl-1-(methylamino)-1-oxobutan-2-yl)-7-isopropyl-3-phenyl-5,6,7,8-tetrahydroimidazo[1,5-a]pyrazine-1-carboxamide] |  | > 10000 nM | 
C[C@@H](NC(=O)c1nc(-c2ccccc2)n2c1CNCC2)C(C)(C)C [Compound 26, (R)-N-(3,3-dimethylbutan-2-yl)-3-phenyl-5,6,7,8-tetrahydroimidazo[1,5-a]pyrazine-1-carboxamide] | + |  | 
Cc1nnc([C@@H](NC(=O)c2nc(-c3ccccc3)n3c2CNCC3)C(C)(C)C)o1 [Compound 200, (S)-N-(2,2-dimethyl-1-(5-methyl-1,3,4-oxadiazol-2-yl)propyl)-3-phenyl-5,6,7,8-tetrahydroimidazo[1,5-a]pyrazine-1-carboxamide] | + |  | 
CNC(=O)[C@@H](NC(=O)c1nc(-c2csc3ccccc23)n2c1CN(C)CC2)C(C)(C)C [Compound 75, (S)-3-(benzo[b]thiophen-3-yl)-N-(3,3-dimethyl-1-(methylamino)-1-oxobutan-2-yl)-7-methyl-5,6,7,8-tetrahydroimidazo[1,5-a]pyrazine-1-carboxamide] | + |  | 
CNC(=O)[C@@H](NC(=O)c1nc(C2=CCNCC2)n2c1CN(C)CC2)C(C)(C)C [Compound 274, (S)-N-(3,3-dimethyl-1-(methylamino)-1-oxobutan-2-yl)-7-methyl-3-(1,2,3,6-tetrahydropyridin-4-yl)-5,6,7,8-tetrahydroimidazo[1,5-a]pyrazine-1-carboxamide] | − |  | 
CNC(=O)[C@@H](NC(=O)c1nc(Cl)n2c1CN(C)CCC2)C(C)(C)C [Compound 598, (S)-3-chloro-N-(3,3-dimethyl-1-(methylamino)-1-oxobutan-2-yl)-8-methyl-6,7,8,9-tetrahydro-5H-imidazo[1,5-a][1,4]diazepine-1-carboxamide] | + |  | 
CNC(=O)[C@@H](NC(=O)c1nc(C2CCCCC2)n2c1CN(C)CCC2)C(C)(C)C [Compound 487, (S)-3-cyclohexyl-N-(3,3-dimethyl-1-(methylamino)-1-oxobutan-2-yl)-8-methyl-6,7,8,9-tetrahydro-5H-imidazo[1,5-a][1,4]diazepine-1-carboxamide] | + |  | 
CC(C)CCNC(=O)c1nc(-c2ccc(Cl)cc2)n2c1CN(CCO)CC2 [Compound 159, 3-(4-chlorophenyl)-7-(2-hydroxyethyl)-N-isopentyl-5,6,7,8-tetrahydroimidazo[1,5-a]pyrazine-1-carboxamide] |  |  | EC50 [1]: > 10000 nM
CC(C)(C)C(=O)N1CCn2c(-c3ccccc3)nc(C(=O)NC3C4(C)CCC(C4)C3(C)C)c2C1 (stereo not drawn) [Compound 123, 3-phenyl-7-pivaloyl-N-(1,3,3-trimethylbicyclo[2.2.1]heptan-2-yl)-5,6,7,8-tetrahydroimidazo[1,5-a]pyrazine-1-carboxamide] |  | > 10000 nM | 
CNC(=O)[C@@H](NC(=O)c1nc(-c2ccc(C)cc2F)n2c1CNCCC2)C(C)(C)C [Compound 316, (S)-N-(3,3-dimethyl-1-(methylamino)-1-oxobutan-2-yl)-3-(2-fluoro-4-methylphenyl)-6,7,8,9-tetrahydro-5H-imidazo[1,5-a][1,4]diazepine-1-carboxamide] |  | > 10000 nM | 
CNC(=O)[C@@H](NC(=O)c1nc(/C=C/C2CCCCC2)n2c1CN(C)CCC2)C(C)(C)C [Compound 439] | + |  | 
CNC(=O)[C@@H](NC(=O)c1nc(-c2ccc(F)c(C(=O)N3CCOCC3)c2)n2c1CN(C)CCC2)C(C)(C)C [Compound 389, (S)-N-(3,3-dimethyl-1-(methylamino)-1-oxobutan-2-yl)-3-(4-fluoro-3-(morpholine-4-carbonyl)phenyl)-8-methyl-6,7,8,9-tetrahydro-5H-imidazo[1,5-a][1,4]diazepine-1-carboxamide] |  | > 10000 nM | 
C[C@@H](NC(=O)c1nc(-c2ccccc2)n2c1CNCC2)C1CCCCC1 [Compound 45, (R)-N-(1-cyclohexylethyl)-3-phenyl-5,6,7,8-tetrahydroimidazo[1,5-a]pyrazine-1-carboxamide] | + |  | 
CNC(=O)[C@@H](NC(=O)c1nc(/C=C/CN2CCOCC2)n2c1CN(C)CCC2)C(C)(C)C [Compound 509, (S,E)-N-(3,3-dimethyl-1-(methylamino)-1-oxobutan-2-yl)-8-methyl-3-(3-morpholinoprop-1-enyl)-6,7,8,9-tetrahydro-5H-imidazo[1,5-a][1,4]diazepine-1-carboxamide] |  | > 10000 nM | 
CNC(=O)[C@@H](NC(=O)c1nc(-c2cccc(NS(C)(=O)=O)c2)n2c1CN(C)CCC2)C(C)(C)C [Compound 421, (S)-N-(3,3-dimethyl-1-(methylamino)-1-oxobutan-2-yl)-8-methyl-3-(3-(methylsulfonamido)phenyl)-6,7,8,9-tetrahydro-5H-imidazo[1,5-a][1,4]diazepine-1-carboxamide] |  | > 10000 nM | 
CNC(=O)[C@@H](NC(=O)c1nc(-c2cn[nH]c2)n2c1CN(C)CCC2)C(C)(C)C [Compound 432, (S)-N-(3,3-dimethyl-1-(methylamino)-1-oxobutan-2-yl)-8-methyl-3-(1H-pyrazol-4-yl)-6,7,8,9-tetrahydro-5H-imidazo[1,5-a][1,4]diazepine-1-carboxamide] | + |  | 
CN1CCCn2c(-c3ccc(Cl)cc3F)nc(C(=O)N[C@H](C(=O)N(C)C)C(C)(C)C)c2C1 [Compound 556, (S)-3-(4-chloro-2-fluorophenyl)-N-(1-(dimethylamino)-3,3-dimethyl-1-oxobutan-2-yl)-8-methyl-6,7,8,9-tetrahydro-5H-imidazo[1,5-a][1,4]diazepine-1-carboxamide] | + |  | 

From patent US7517874B2 (priority 2007, dated 2009)
